{
  "source": "PubChem BioAssay AID1768",
  "about": "(National Center for Advancing Translational Sciences (NCATS), 2009)",
  "note": "In all, about 270,000 compounds went through this assay and about 620 (0.23%) were called active. Inconclusive means that the source gave no clear call. Such entries were picked first, then a sample of the others. Calls come from the whole dose curve; as a rule, active = well fitted inhibition curve with a large enough effect in the polarisation, with a control signal flat (not every such curve was filed as active); inconclusive = small, poorly fitted or top-dose-only effect, or effect the other way, or a change in a side signal; inactive = no such curve, though single readings can be large or run the other way; the % refers to the polarisation. Potencies of inconclusive entries are doubtful fits and often do not repeat. A note “side channel” means that the fit belongs to a control or component signal, not to the main read-out. Potency is the fitted concentration of half-maximal effect; tags give direction and shape of the fitted curve or compound fluorescence and quenching.",
  "data": [
    {"biological_target": "Menin (Homo sapiens) (UniProt O00255)", "sequence (O00255 whole entry, looked up)": "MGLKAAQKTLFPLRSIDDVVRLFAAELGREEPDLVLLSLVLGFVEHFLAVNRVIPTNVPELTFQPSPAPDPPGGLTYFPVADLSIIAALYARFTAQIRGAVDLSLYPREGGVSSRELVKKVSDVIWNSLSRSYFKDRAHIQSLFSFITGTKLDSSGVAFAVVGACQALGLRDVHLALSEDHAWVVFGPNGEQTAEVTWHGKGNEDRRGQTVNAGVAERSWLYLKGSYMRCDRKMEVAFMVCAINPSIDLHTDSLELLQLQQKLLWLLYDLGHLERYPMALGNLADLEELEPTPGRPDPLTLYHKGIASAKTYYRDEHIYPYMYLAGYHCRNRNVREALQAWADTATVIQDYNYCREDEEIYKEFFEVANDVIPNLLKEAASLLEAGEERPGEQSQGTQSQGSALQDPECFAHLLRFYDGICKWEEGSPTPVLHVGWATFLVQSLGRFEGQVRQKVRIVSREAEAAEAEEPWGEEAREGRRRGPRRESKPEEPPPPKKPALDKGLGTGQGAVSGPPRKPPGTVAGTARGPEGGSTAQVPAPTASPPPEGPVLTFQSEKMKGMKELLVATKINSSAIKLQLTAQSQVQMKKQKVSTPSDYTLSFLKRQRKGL", "experiment": "qHTS Assay for Inhibitors Targeting the Menin-MLL Interaction in MLL Related Leukemias: Competition With Texas Red Labeled MLL-derived Mutant Peptide; for FP activity change, negative = inhibition: % of control where 0% means no effect", "settings": "fluorescence polarization; FP activity change, negative = inhibition: at 61.6 µM (top of the series)", "values": [
      {"compound": "CC(=O)C1=C(c2ccc(Br)cc2)C(=O)c2ccccc2C1=O", "Potency": "inconclusive: 12.6 µM [quencher, side channel, partial curve]"},
      {"compound": "CCCc1cc2c(=O)c(-c3nc4ccccc4s3)c(COCC(=O)O)oc2cc1O", "Potency": "inconclusive: 14.1 µM [quencher, side channel, partial curve]"},
      {"compound": "CCC(=O)c1ccc(N2CCN(C(=O)c3cc([N+](=O)[O-])ccc3F)CC2)c(F)c1", "Potency": "inconclusive: 12.6 µM [inhibitor, partial curve]"},
      {"compound": "CCc1ccc2oc(C(=O)N3CCN(c4ccccc4OC)CC3)cc(=O)c2c1", "Potency": "inconclusive: 10 µM [inhibitor, partial curve]"},
      {"compound": "c1ccc(Cn2c(SCc3cn4cccnc4n3)nnc2-c2ccco2)cc1", "Potency": "inconclusive: 3.16 µM [inhibitor, partial curve]"},
      {"compound": "CCc1nnc(NC(=O)CCN2C(=O)/C(=C/c3cc(OC)c(OC)c(OC)c3)SC2=S)s1", "Potency": "inconclusive: 25.1 µM [fluorescent, side channel, single point]"},
      {"compound": "Oc1c(Br)cc(/C=N/n2c(-c3ccccc3)n[nH]c2=S)c(Br)c1O", "Potency": "inconclusive: 28.2 µM [quencher, side channel, single point]"},
      {"compound": "O=C1C=C(O)c2cccc3cccc1c23", "Potency": "inconclusive: 31.6 µM [quencher, side channel, single point]"},
      {"compound": "CCn1c(SCC(=O)c2cc(C)n(-c3ccc(C(=O)OC)cc3)c2C)nnc1-c1cccnc1", "Potency": "inconclusive: 10 µM [inhibitor, partial curve, poor fit]"},
      {"compound": "O=C(NCc1ccco1)c1cc2ccccc2c(=O)o1", "Potency": "inconclusive: 39.8 µM [quencher, single point]"},
      {"compound": "CCCCCCSC1=C(C#N)C(=O)NC2(CCCCC2)S1", "Potency": "inconclusive: 31.6 µM [quencher, side channel, single point]"},
      {"compound": "OC[C@H]1NC[C@H](O)[C@@H](O)[C@@H]1O", "FP activity change, negative = inhibition": "inactive: 3.05%"},
      {"compound": "COC(=O)C1=C(C(=O)OC)[C@@H]2Nc3ccccc3[C@@]23C[C@@H](C(=O)OC)N(S(=O)(=O)c2ccc(C)cc2)C3=N1", "FP activity change, negative = inhibition": "inactive: -9.37% [at 11.7 µM]"},
      {"compound": "Oc1ccc(/C=N/Nc2cc(N3CCOCC3)nc(N3CCOCC3)n2)cc1O", "Potency": "inconclusive: 25.1 µM [quencher, side channel, partial curve]"},
      {"compound": "O=C(c1ccco1)N1CCN(Cc2c(Cl)cccc2Cl)CC1", "Potency": "inconclusive: 20 µM [fluorescent, side channel, partial curve]"},
      {"compound": "Clc1ccccc1OCc1nc(-c2ccc(Br)o2)no1", "Potency": "inconclusive: 31.6 µM [quencher, side channel, partial curve]"},
      {"compound": "O=C(O)c1ccc(-n2c(/C=C/c3cccc([N+](=O)[O-])c3)nc3ccccc3c2=O)cc1", "Potency": "inconclusive: 10 µM [quencher, side channel, partial curve]"},
      {"compound": "Oc1[nH]c2ccc(Br)cc2c1N=Nc1ccc(F)cc1", "Potency": "inconclusive: 6.31 µM [quencher, side channel, partial curve]"},
      {"compound": "O=C(NCc1ccco1)c1cccn2c(=O)c3cc4ccccc4cc3nc12", "FP activity change, negative = inhibition": "inactive: 14%"},
      {"compound": "C=CCN(C(=O)c1ccccn1)C(C(=O)NCc1ccccc1)c1ccccc1F", "note": "(configuration not stated)", "Potency": "inconclusive: 7.94 µM [fluorescent, side channel, full curve]"},
      {"compound": "CCN1CCN(CCOCCOc2ccccc2-c2ccccc2)CC1", "Potency": "inconclusive: 39.8 µM [inhibitor, single point]"},
      {"compound": "O=C1CC(c2ccc3c(c2)OCO3)c2cc(O)ccc2O1", "note": "(configuration not stated)", "Potency": "inconclusive: 56.2 µM [quencher, single point]"},
      {"compound": "OCCOCCNc1ncnc2c1c(-c1ccccc1)cn2-c1ccccc1", "Potency": "inconclusive: 20 µM [inhibitor, single point]"},
      {"compound": "O=C(Nc1cccc(-n2cnnn2)c1)c1cccs1", "Potency": "inconclusive: 17.8 µM [quencher, side channel, single point]"},
      {"compound": "O=C(CCCNC(=O)/C(=C/c1ccc(F)cc1)NC(=O)c1ccccc1)OCc1ccccc1", "Potency": "inconclusive: 7.94 µM [fluorescent, side channel, full curve, poor fit]"},
      {"compound": "CCCN1Cc2cccc(C(=O)N3CCN(c4ccc(OC)cc4)CC3)c2C1=O", "Potency": "inconclusive: 28.2 µM [fluorescent, side channel, single point]"},
      {"compound": "CCN(CC)c1ccc(NC(=O)c2ccc(=O)[nH]c2)cc1S(=O)(=O)Nc1ccccc1OC", "Potency": "inconclusive: 20 µM [quencher, side channel, partial curve]"},
      {"compound": "O=C(N/N=C/c1ccc(O)cc1)Nc1cccc2nsnc12", "Potency": "inconclusive: 15.8 µM [quencher, side channel, partial curve]"},
      {"compound": "N=c1n(CC(=O)c2ccc([N+](=O)[O-])cc2)c2ccccc2n1Cc1ccc(Cl)cc1", "FP activity change, negative = inhibition": "inactive: 2.83%"},
      {"compound": "Clc1cccc(N=C2NN=C(c3ccc4c(c3)OCCO4)CS2)c1", "Potency": "inconclusive: 35.5 µM [inhibitor, single point]"},
      {"compound": "Cc1cc2n(n1)C(c1ccc(N(C)C)cc1)Nc1ccccc1-2", "note": "(configuration not stated)", "Potency": "inconclusive: 28.2 µM [quencher, side channel, partial curve]"},
      {"compound": "CN(c1ccccc1)S(=O)(=O)c1cccc(C(=O)Nc2nccs2)c1", "Potency": "inconclusive: 3.16 µM [quencher, side channel, single point]"},
      {"compound": "CC(C)C1CC(CCN)(Cc2ccccc2)CCO1", "note": "(configuration not stated)", "Potency": "inconclusive: 15.8 µM [inhibitor, single point]"},
      {"compound": "COC(=O)c1ccc2c(=O)n(CCCCCC(=O)NCc3ccc4c(c3)OCO4)c(=O)[nH]c2c1", "Potency": "inconclusive: 10 µM [inhibitor, partial curve]"},
      {"compound": "CC(C)(C)NC(=O)NC(=O)CN1CCN(C(c2ccccc2)c2ccccc2)CC1", "Potency": "inconclusive: 8.91 µM [fluorescent, side channel, full curve]"},
      {"compound": "COc1ccc(-c2csc3nc(C(C)(C)C)oc(=O)c23)cc1OC", "Potency": "inconclusive: 10 µM [fluorescent, side channel, partial curve]"},
      {"compound": "CN(C)CC1CCCCC1OC(=O)c1ccc(S(=O)(=O)N(C)c2ccccc2)cc1", "note": "(configuration not stated)", "Potency": "inconclusive: 14.1 µM [inhibitor, partial curve]"},
      {"compound": "Oc1ccccc1C(=S)N1CCN(C(=S)c2ccccc2O)CC1", "Potency": "inconclusive: 1.58 µM [inhibitor, partial curve]"},
      {"compound": "O=C(Cc1ccc(-c2ccccc2)cc1)NNC(=S)NCc1ccco1", "Potency": "inconclusive: 17.8 µM [fluorescent, side channel, partial curve]"},
      {"compound": "CCSc1nc2sc3c(c2c(=O)[nH]1)CCc1ccccc1-3", "Potency": "inconclusive: 12.6 µM [quencher, side channel, partial curve]"},
      {"compound": "COc1ccc(C(=O)N/N=C/c2ccc(OC)c(CN3CCc4cc(OC)c(OC)cc4C3C)c2)cc1", "note": "(configuration not stated)", "Potency": "inconclusive: 28.2 µM [fluorescent, side channel, partial curve]"},
      {"compound": "O=[N+]([O-])c1ccc(Nc2ccc(F)cc2)nc1", "Potency": "inconclusive: 25.1 µM [quencher, side channel, single point]"},
      {"compound": "CCOC(=O)N1CCN(C(=O)CN(C2CCCCC2)S(C)(=O)=O)CC1", "Potency": "inconclusive: 7.94 µM [inhibitor, full curve, poor fit]"},
      {"compound": "COc1ccc(Cl)cc1NC(=O)Nc1ccccc1C(N)=O", "Potency": "inconclusive: 12.6 µM [quencher, side channel, partial curve]"},
      {"compound": "CN(C)c1ccc(N=C/C=C2/N(C)c3ccccc3C2(C)C)cc1", "FP activity change, negative = inhibition": "inactive: -19.4%"},
      {"compound": "C=CCNC(=O)/C(C#N)=C/c1cn(-c2ccccc2)nc1-c1cccs1", "Potency": "inconclusive: 39.8 µM [inhibitor, single point]"},
      {"compound": "CN(C(=O)COC(=O)c1ccc(Cl)c(N)c1)c1ccccc1", "Potency": "inconclusive: 35.5 µM [inhibitor, single point]"},
      {"compound": "C[C@H](CCCC(C)(C)O)[C@H]1CC[C@H]2[C@@H]3CC=C4C[C@@H](O)CC[C@]4(C)[C@H]3CC[C@]12C", "FP activity change, negative = inhibition": "inactive: -17.9%"},
      {"compound": "CCCn1c(CC)nc([N+](=O)[O-])c1Sc1ccc(F)cc1", "Potency": "inconclusive: 10 µM [inhibitor, partial curve]"},
      {"compound": "COc1ccc(CNC(=O)Nc2ccc([N+](=O)[O-])cc2)cc1", "FP activity change, negative = inhibition": "inactive: -47.5%"},
      {"compound": "O=C(O)CC(SCC(=O)Nc1ccc(Br)cc1)C(=O)O", "note": "(configuration not stated)", "Potency": "inconclusive: 39.8 µM [inhibitor, single point]"},
      {"compound": "O=c1[nH]nc(-c2ccc(OCc3ccc(Cl)cc3Cl)cc2)o1", "Potency": "inconclusive: 39.8 µM [fluorescent, side channel, single point]"},
      {"compound": "O=S(=O)(Nc1ccccn1)c1ccc(Cl)c2ccccc12", "Potency": "inconclusive: 39.8 µM [fluorescent, side channel, single point]"},
      {"compound": "N#Cc1cccc(-c2nc(NCc3ccccc3)c3ccccc3n2)c1", "Potency": "inconclusive: 8.91 µM [quencher, side channel, partial curve]"},
      {"compound": "Cc1ccccc1-c1cccc([C@@H]2C[C@H]3CN(Cc4cccnc4)C(=O)[C@]34CCCN24)c1", "Potency": "inconclusive: 7.08 µM [fluorescent, side channel, partial curve]"},
      {"compound": "COc1ccc(-c2csc(-n3ncc(-c4ccccn4)c3N)n2)cc1", "Potency": "inconclusive: 10 µM [quencher, side channel, partial curve]"},
      {"compound": "O=C1CC(N2CCN(Cc3ccc4c(c3)OCO4)CC2)C(=O)N1CCc1ccccc1", "note": "(configuration not stated)", "Potency": "inconclusive: 11.2 µM [inhibitor, partial curve, poor fit]"}
    ]}
  ]
}
